Measured values reported in the supplement of paper PMC3334620.
Over roughly 33,000 sequences, “E-score (-0.5 to 0.5)” has its median near -0.04; the highest 2% begin near 0.36. The list shows a part of the results.

Each sequence was assayed against T1, Hmlalpha2 (UniProt P0CY09) (assay: PBM E-score (8-mer binding enrichment) (E-score (-0.5 to 0.5)); higher = stronger / more preferred TF binding; most listed sequences are background and not binding sites). Details: protein concentration: 200 nM; construct: GST-full length.
T1 sequence: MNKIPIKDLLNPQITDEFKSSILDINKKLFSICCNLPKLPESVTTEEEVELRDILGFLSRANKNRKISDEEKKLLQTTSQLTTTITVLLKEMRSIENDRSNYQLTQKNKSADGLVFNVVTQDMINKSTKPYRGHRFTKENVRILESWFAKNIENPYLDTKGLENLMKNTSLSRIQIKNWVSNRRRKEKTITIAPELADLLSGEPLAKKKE
Method: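 Universal 'all 10-mer' protein binding microarrays (Agilent AMADID 015681) probed with GST-tagged S. cerevisiae TFs (full-length or DBD) made by in vitro transcription/translation (PURExpress), about 100-200 nM. Bound TF was detected with fluorescent anti-GST. Each ungapped 8-mer (which stands for itself and its reverse complement) is scored by the PBM enrichment score (E-score), a modified Wilcoxon-Mann-Whitney statistic from -0.5 to +0.5, computed with the Universal PBM Analysis Suite. Scale: above 0.35 generally sequence-specific binding.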

| Sequence | PBM E-score |
| --- | --- |
| CTATTGGC | -0.145 |
| CGAGGGAA | -0.168 |
| GGGAACAA | 0.00697 |
| GAGTGAGC | -0.106 |
| AAGGTCAG | -0.105 |
| AGTCCGCG | -0.00885 |
| TCGGGGAA | -0.00686 |
| CCCACGAC | -0.214 |
| CGGGTTAG | -0.176 |
| CCAACTCC | -0.119 |
| AATTGAGC | -0.0316 |
| AAGGCTAG | -0.0575 |
| CGTTGGCC | -0.0166 |
| ACCCTGTA | 0.213 |
| ACTGTACT | -0.159 |
| ATCATGTC | 0.351 |
| ATAATAGG | 0.101 |
| CTCTATTA | -0.0158 |
| CAGAGGGG | -0.319 |
| CGTTACAG | -0.0046 |
| GTTACACA | 0.435 |
| AGGGTTCA | 0.0416 |

| Sequence | PBM E-score |
| --- | --- |
| CTATTTTA | 0.112 |
| ATCGTTAA | 0.157 |
| CCAACAAG | 0.11 |
| GTAATGTA | 0.413 |
| CCTGGTAC | 0.029 |
| AGTGGTCC | -0.169 |
| AGGCTACC | -0.131 |
| CAGTACGG | 0.0414 |
| ATGTTTTG | 0.327 |
| GCTTGCCC | -0.351 |
| GCGTCAGC | -0.112 |
| CGCTATAC | 0.001 |
| GTACCGTA | -0.021 |
| CTCTATCA | -0.141 |
| GGAAAACA | 0.254 |
| GATTGGGC | -0.133 |
| ACTGACCT | -0.157 |
| CAAACGTA | 0.206 |
| CGATAAAC | -0.0169 |
| GTCTCAGA | -0.137 |
| ATAACGAC | 0.0566 |
| CCAACGAC | -0.114 |

| Sequence | PBM E-score |
| --- | --- |
| ACCAGACC | -0.0452 |
| GATTAATA | 0.0807 |
| TAAAACAA | 0.319 |
| GGGGAATA | -0.0617 |
| ACCTCCGG | -0.124 |
| AGAATCCA | -0.0964 |
| CGACTCGC | -0.221 |
| GATTAGTA | 0.168 |
| GTATGTTA | 0.414 |
| AAGATATT | -0.0657 |
| GAGAATTA | 0.0645 |
| ACGGTGTC | -0.156 |
| GACCGCTC | -0.152 |
| CTCTCCAG | -0.357 |
| AGCTCCCC | -0.323 |
| ACATATGT | 0.369 |
| CGATCTGA | -0.181 |
| ACAGCGGC | -0.132 |
| CCCTACAG | -0.297 |
| GATTCAGA | -0.0122 |
| ATCTTCAC | -0.0287 |
| ACGCTTCA | 0.0298 |

| Sequence | PBM E-score |
| --- | --- |
| CCGGCTTA | -0.0332 |
| AAACCCGT | 0.0829 |
| GACCCTGA | -0.21 |
| AAACCGCA | -0.136 |
| AGTAGGTG | -0.0396 |
| TCGGGACA | -0.217 |
| CATCTATC | -0.161 |
| CCCGGTTC | -0.22 |
| CACGTTCA | 0.179 |
| AGGACAAA | 0.12 |
| GCGCGATA | 0.0473 |
| TGCAGAAA | 0.148 |
| ATTGAGTC | 0.00655 |
| AGTTGTCC | -0.0713 |
| GTCTACGA | -0.217 |
| GTCTAACA | 0.218 |
| CGGAACGA | 0.0232 |
| AAATTGCA | -0.0487 |
| CCAAACAC | 0.124 |
| GCGTGGGA | -0.0491 |
